The chains are these.
T1: RBFOX1 RRM RbFoxmut (Fox-RRM*) (Homo sapiens, UniProt Q9NWB1 109-208, R118D;E147R;N151S;E152T)
T1 sequence: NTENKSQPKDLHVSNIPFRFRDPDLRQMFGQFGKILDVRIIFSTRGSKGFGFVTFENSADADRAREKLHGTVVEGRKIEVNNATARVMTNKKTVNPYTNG

B1: GCGUUCC (DNA:RNA)
RNA: GGGAGACCGGAAUUCAGAUUGUCCGCGUUCCUUAAAUCCCGUCGUAGCCACCA
DNA 1: CAATCTGAATTCCGGTCTCCC
DNA 2: TGGTGGCTACGACGGGATT
B2: CCAGGUA (DNA:RNA)
RNA: B1 RNA with G25C, G27A, U28G, U29G, C30U, C31A
DNA 1: CAATCTGAATTCCGGTCTCCC
DNA 2: TGGTGGCTACGACGGGATT
B3: GUAUAGC (DNA:RNA)
RNA: B1 RNA with C26U, G27A, U29A, C30G
DNA 1: CAATCTGAATTCCGGTCTCCC
DNA 2: TGGTGGCTACGACGGGATT
B4: CCAACCU (DNA:RNA)
RNA: B1 RNA with G25C, G27A, U28A, U29C, C31U
DNA 1: CAATCTGAATTCCGGTCTCCC
DNA 2: TGGTGGCTACGACGGGATT
B5: CGGCAUA (DNA:RNA)
RNA: B1 RNA with G25C, C26G, U28C, U29A, C30U, C31A
DNA 1: CAATCTGAATTCCGGTCTCCC
DNA 2: TGGTGGCTACGACGGGATT
B6: GUCCUGC (DNA:RNA)
RNA: B1 RNA with C26U, G27C, U28C, C30G
DNA 1: CAATCTGAATTCCGGTCTCCC
DNA 2: TGGTGGCTACGACGGGATT
B7: AAAAUAC (DNA:RNA)
RNA: B1 RNA with G25A, C26A, G27A, U28A, C30A
DNA 1: CAATCTGAATTCCGGTCTCCC
DNA 2: TGGTGGCTACGACGGGATT
B8: AGUACGG (DNA:RNA)
RNA: GGGAGACCGGAAUUCAGAUUGUCCAGUACGGUUAAAUCCCGUCGUAGCCACCA
DNA 1: CAATCTGAATTCCGGTCTCCC
DNA 2: TGGTGGCTACGACGGGATT
B9: CCAAGGA (DNA:RNA)
RNA: B8 RNA with A25C, G26C, U27A, C29G, G31A
DNA 1: CAATCTGAATTCCGGTCTCCC
DNA 2: TGGTGGCTACGACGGGATT

Numbering of substitutions follows the chain as printed; changes in the protein carry UniProt numbers. Some of the results follow.

This assay addresses T1, RBFOX1 RRM RbFoxmut (Fox-RRM*). In words: EMSA; HiTS-Eq, 1 nM pool, 10 min; buffer printed only for the single-RNA assays: 10 mM Tris pH 7.5, 150 mM NaCl, 3.4 mM EDTA, 0.001% NP-40, 30 C. The conditions noted are these: tags: His6 N-terminal (pET28a); label: 5' 32P. The essentials: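 Purified RbFox RRM (wild type or mutant) was equilibrated for 10 min in 50 µL with 1 nM of a 5′-radiolabelled pool of RNA with 7 randomized nucleotides, its flanks annealed to DNA oligonucleotides, across increasing protein concentrations. Free RNA was separated by 8% native PAGE, excised, reverse-transcribed, PCR-barcoded and sequenced on an Illumina HiSeq 2500. Relative association constants came from read-count changes of each variant against the control reaction, normalised to the cognate motif.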
With B1, the binding signal is 0.0604 KA relative to UGCAUGU.
Consider B2, for which the binding signal was 0.147 KA relative to UGCAUGU.
As for B3, the figure is 0.147 KA relative to UGCAUGU.
Regarding B4, the binding signal is 0.0994 KA relative to UGCAUGU.
The same measure for B5: 0.108 KA relative to UGCAUGU; for B6: 0.104 KA relative to UGCAUGU; for B7: 0.076 KA relative to UGCAUGU.
The same measure for B8: 0.107 KA relative to UGCAUGU; for B9: 0.0815 KA relative to UGCAUGU.

The values are drawn from publication PMC9911399, “Two distinct binding modes provide the RNA-binding protein RbFox with extraordinary sequence specificity”.
